# Measurements: the supplement of paper PMC12217912
# Some of the results follow. The full chains were built here from the parent and the listed change. Values near 0.05 are background.
# B1: TEV protease; numbered along this chain (parent)
# chain: MGESLFKGPRDYNPISSSICHLTNESDGHTTSLYGIGFGPFIITNKHLFRRNNGTLVVQSLHGVFKVKDTTTLQQHLVDGRDMIIIRMPKDFPPFPQKLKFREPQREERICLVTTNFQTKSMSSMVSDTSCTFPSGDGIFWKHWIQTKDGQCGSPLVSTRDGFIVGIHSASNFTNTNNYFTSVPKNFMELLTNQEAQQWVSGWRLNADSVLWGGHKVFMVKPEEPFQPVKEATQL
# Variants of: B1
# Assay: raw area under fraction-flipped curve 0-4 h after induction (AUC4h, not background-subtracted), DNA-recorder readout of cleavage of the substrate (dimensionless); higher = more cleavage of the substrate by the protease variant
# Conditions: temperature: 34 °C; time window: 0-4 h after rhamnose induction
# Procedure: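 In vivo DNA recorder in E. coli TOP10(DE3) ΔrhaA at 34 °C. Each TEVp single-site mutant (parent TEVp 0) is paired with a single-site variant of the 7-mer TEVs (canonical ENLYFQ|S). The substrate sits between flexible linkers in a Bxb1-sfGFP-TEVs-SsrA fusion, so cleavage stabilises Bxb1 and speeds flipping of a recombination array, read by NGS. The value is the raw area under the fraction-flipped curve over 0-4 h after rhamnose induction (AUC4h), with ≥20 reads per time point. It is not background-subtracted; inactive controls average about 0.047.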
# 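Also: Bxb1 expression induced with 0.2% (w/v) L-rhamnose at OD600 near 0.5, cultures sampled hourly, flipped fraction per protease–substrate barcode pair counted by paired-end Illumina sequencing.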
Variant,area with substrate ENLYFQC,area with substrate ENLYFQK,area with substrate ENLYFQL,area with substrate ENLYFQN,area with substrate ENLYFQR,area with substrate ENLYFQS,area with substrate ENLYFQT,area with substrate ENLYFQV,area with substrate ENLYFQW,area with substrate ENLYFQY,area with substrate ENLYFQD,area with substrate ENLYFQE,area with substrate ENLYFQG,area with substrate ENLYFQP,area with substrate ENLYFQQ,area with substrate ENLYFQI,area with substrate ENLYFQH,area with substrate ENLYFQM,area with substrate ENLYFQF,area with substrate ENLYFQA
I110M,0.0601,0.0513,0.0492,0.0565,0.0568,0.0764,0.0362,0.0583,0.051,0.0712,,,,,,,,,,
I110Q,0.0489,,0.0468,0.0516,,0.0554,,0.0641,0.0503,0.0626,0.0594,0.053,0.0406,0.0604,0.0541,,,,,
C111N,0.164,0.0553,,0.0974,0.067,0.0914,0.0525,,0.0711,,,,0.0981,0.0572,,0.0567,,,,
N45A,0.108,0.0663,0.0559,0.0685,,0.0861,0.0509,0.0546,0.0622,0.0695,0.0728,,0.0938,0.054,0.0627,,0.0718,0.076,,
F95V,0.089,0.0396,0.0568,,,0.0829,0.0524,,0.0631,0.0445,,0.0476,,,0.0559,,,,,
T70D,0.0787,0.0452,0.062,,0.0522,0.0738,0.0615,0.0709,0.0529,0.0608,0.0527,0.0502,0.0755,,,0.0473,0.0418,0.0698,0.0392,
Q227T,0.0667,0.0587,,0.0802,0.0635,0.104,0.0639,,,,,,0.0901,,0.0779,,,0.0974,,0.117
I86K,0.0368,,0.0387,0.0265,0.0217,0.0395,0.0352,,0.032,0.0322,,,,0.0306,0.0453,0.043,0.049,0.0361,0.0272,
I85M,0.122,0.0604,0.0713,0.0976,0.0645,0.107,0.0688,0.0688,0.0638,,,0.0673,,0.055,0.0631,0.0609,0.0781,,,
N53I,0.109,0.0512,0.0282,0.0677,0.0612,0.0772,0.0613,0.0663,,0.0598,0.0503,,0.0794,0.0568,,0.0606,0.0773,,0.0599,
F92A,0.101,,,0.0791,0.0531,0.0954,,0.0634,0.0596,0.0852,0.0678,0.0346,,0.0514,0.0662,,0.0887,0.0777,0.0682,
Q234R,0.131,,0.0714,0.076,,0.102,0.06,,,0.0738,,,0.0626,0.0661,,,0.108,0.096,0.0855,0.0988
D82Q,0.065,,0.0502,0.0934,0.0529,0.059,0.0696,,0.0971,0.0633,,,0.0625,,0.0437,0.046,,,,
Q97S,0.106,,,,,0.104,,,,0.142,0.0838,,,0.0828,,,0.0769,,,
K230W,0.114,,0.0589,0.0831,0.0591,0.0989,0.0663,,0.0616,0.0619,0.0618,,0.0885,0.0405,0.0857,,0.0579,0.103,,0.0778
K230L,,,0.0449,0.068,,0.0941,0.0307,,0.0645,0.0784,,,0.0914,,,0.0536,0.0805,,,0.0967
G28R,0.0859,0.0547,,0.0388,0.0788,0.0869,0.0666,0.0579,0.0678,0.0786,0.0652,,,,0.076,0.0712,,0.0754,,
Y34Q,0.112,0.0606,0.0593,,,0.0948,0.0727,0.0529,0.0444,,,,,,,,,,,
R106H,0.124,0.0667,0.0563,0.0906,0.0603,0.0988,0.0626,,0.072,0.105,,,,0.0713,,0.0548,,0.0899,,
Q74E,0.112,0.0601,0.0573,0.0702,0.071,0.103,0.0842,,0.0711,0.068,,,,0.0467,,,0.0941,0.0977,,
Q74W,0.0951,0.064,0.0549,,0.0411,0.0857,,0.0584,,0.0821,0.0553,,0.071,,,0.0541,0.0749,0.0775,,
Q74F,0.0884,0.0495,0.0503,0.08,0.0609,0.0899,0.0705,0.0534,,0.064,0.0573,,0.104,0.0549,,0.0599,,,0.0807,
H76A,0.0992,0.0559,,0.0721,0.0683,0.0877,0.0581,0.0607,0.0678,0.0671,,,0.0807,0.0549,,,,0.0684,0.0567,
E107N,0.107,0.0502,0.0605,0.0676,0.0575,0.114,,,0.0693,,0.0641,,0.108,,,0.0643,,0.0692,0.0829,
H47V,0.0601,0.0659,0.0615,0.0562,0.0619,0.0634,0.0557,0.0429,0.0591,0.0607,,0.0557,0.0584,,0.0708,0.0554,0.0606,0.0611,0.0719,
E3S,0.143,0.0646,0.0444,0.0773,0.0599,0.124,0.0573,,0.0824,,,,0.123,0.0653,,,0.0778,0.0965,0.0754,
R109H,0.141,,0.0589,0.0706,0.0605,0.0959,0.0648,0.0642,0.0596,0.0929,,,,,,,0.0766,,,
I19C,0.111,,0.0692,,0.0633,0.0997,0.066,0.0513,0.0645,0.0783,0.0672,,0.104,,,0.0723,0.0851,,0.073,
